Experimental data published in PubChem BioAssay AID1768 (National Center for Advancing Translational Sciences (NCATS), 2009).
About 620 (0.23%) of roughly 270,000 compounds were called active. This list was built around the results that the source calls inconclusive (neither active nor inactive); the mix of calls is not that of the screen. Calls follow the shape of the dose curve; as a rule, active = well fitted inhibition curve with a large enough effect in the polarisation, with a control signal flat (not every such curve was filed as active); inconclusive = small, poorly fitted or top-dose-only effect, or effect the other way, or a change in a side signal; inactive = no such curve, though single readings can be large or run the other way; the % refers to the polarisation. Potencies beside an inconclusive call are fits to weak or partial responses and may not hold up. “Side channel” marks fits to a control or component signal instead of the main read-out.

Target: Menin (Homo sapiens) (UniProt O00255)
Sequence of UniProt O00255 (O00255 whole entry, looked up): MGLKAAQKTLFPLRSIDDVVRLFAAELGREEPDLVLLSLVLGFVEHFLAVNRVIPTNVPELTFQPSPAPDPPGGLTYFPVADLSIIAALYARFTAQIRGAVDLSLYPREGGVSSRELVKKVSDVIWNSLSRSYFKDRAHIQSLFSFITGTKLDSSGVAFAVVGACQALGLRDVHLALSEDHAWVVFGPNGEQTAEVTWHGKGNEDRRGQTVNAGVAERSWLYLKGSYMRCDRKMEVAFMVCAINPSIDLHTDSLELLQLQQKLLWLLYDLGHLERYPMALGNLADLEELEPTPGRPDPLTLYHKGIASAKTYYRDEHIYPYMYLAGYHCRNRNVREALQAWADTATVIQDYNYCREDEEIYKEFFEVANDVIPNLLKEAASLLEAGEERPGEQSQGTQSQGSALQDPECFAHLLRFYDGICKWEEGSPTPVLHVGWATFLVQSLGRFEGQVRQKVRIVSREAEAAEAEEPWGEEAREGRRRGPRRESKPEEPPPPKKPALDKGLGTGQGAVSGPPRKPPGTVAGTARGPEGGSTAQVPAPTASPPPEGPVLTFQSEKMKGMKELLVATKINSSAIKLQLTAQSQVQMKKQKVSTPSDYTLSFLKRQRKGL
Assay: qHTS Assay for Inhibitors Targeting the Menin-MLL Interaction in MLL Related Leukemias: Competition With Texas Red Labeled MLL-derived Mutant Peptide; as to FP activity change, negative = inhibition: % of control where 0% means no effect
Conditions: fluorescence polarization; FP activity change, negative = inhibition: at 61.6 µM (top of the series)
Potency is read from the fitted curve at half-maximal effect; tags tell the direction and shape of the fitted curve or compound fluorescence and quenching.

Structure (SMILES) | Potency | FP activity change, negative = inhibition
CCCOP(=O)(c1ccc(N(C)C)cc1)C(O)c1cc(OC)ccc1OC (stereo unspecified) | inconclusive: 25.1 µM [fluorescent, side channel, partial curve] | 
CCn1c(CCc2ccccc2)nc2ccccc21 | inconclusive: 17.8 µM [inhibitor, single point] | 
CC(C)(C)c1ccc(/C=C/C(=O)N2CCCCC2)cc1 | inconclusive: 1 µM [inhibitor, full curve, poor fit] | 
C#CCOCCOCCOCCNc1nc(N2CCN(C(=O)[C@H]([C@@H](C)CC)n3cc([C@@H](N)Cc4ccc(O)cc4)nn3)CC2)nc(N2CCN(C(=O)[C@H]([C@@H](C)CC)n3cc([C@@H](N)Cc4ccc(O)cc4)nn3)CC2)n1 | inconclusive: 1.26 µM [fluorescent, side channel, full curve] | 
CCc1noc(C)c1C(=O)NC1CCCc2c1cnn2-c1cc(C)cc(C)c1 (stereo unspecified) | inconclusive: 3.55 µM [inhibitor, partial curve] | 
O=C(Nc1nc2ccc(S(=O)(=O)N3CCCCC3)cc2s1)c1cccnc1 | inconclusive: 31.6 µM [quencher, side channel, single point] | 
CCc1nnc(NS(=O)(=O)c2ccc(NC(=O)CCC(=O)OC)cc2)s1 | inconclusive: 28.2 µM [inhibitor, single point] | 
COCCNC(=O)C(c1ccc(C)o1)N(C(=O)c1snc(C(N)=O)c1N)c1cc(C)cc(C)c1 (stereo unspecified) | inconclusive: 1.78 µM [fluorescent, side channel, full curve] | 
NS(=O)(=O)c1ccc(-c2ccc(/C=C3\C(=O)Nc4cc(Cl)ccc43)o2)cc1 | inconclusive: 2.82 µM [quencher, side channel, full curve] | 
C/C(=N/NC(=O)CNC(=O)/C=C/c1ccco1)c1ccc(Cl)cc1 | inconclusive: 6.31 µM [quencher, side channel, full curve] | 
Cc1ccc(C)c(NC(=S)NCCN(C2CCCCC2)C2CCCC2)c1 | inconclusive: 10 µM [fluorescent, side channel, partial curve] | 
COC(=O)c1ccccc1S(=O)(=O)NC(=O)c1ccccc1 |  | inactive: 3.71%
O=C(NC1CCCCC1)C(c1cccs1)N(Cc1cccs1)C(=O)c1ccco1 (stereo unspecified) | inconclusive: 11.2 µM [fluorescent, side channel, partial curve] | 
CC(C)(C)OC(=O)NCCCC[C@H](NC(=O)c1nc[nH]c1C(=O)NC(c1ccccc1)c1ccccc1)C(=O)OC(C)(C)C | inconclusive: 1 µM [fluorescent, side channel, full curve] | 
C[C@H]1C(c2cccc(Cl)c2)=NN(c2ccccc2)[C@@H]1CO | inconclusive: 28.2 µM [quencher, partial curve] | 
C=C(C)c1cccc(C(C)(C)NC(=O)N(Cc2ccccc2)Cc2ccco2)c1 | inconclusive: 5.01 µM [fluorescent, side channel, partial curve] | 
Cc1ccc(C)n1-c1ccc(C(=O)/C=C/N(C)C)cc1 | inconclusive: 39.8 µM [quencher, side channel, single point] | 
Cc1ccc(S(=O)(=O)N2CCN(C(=O)CN3CCCCC3)C2)cc1 |  | inactive: -1.83%

Structure (SMILES) | Potency | FP activity change, negative = inhibition
c1ccc2c(c1)ncn2CCCCOc1ccc2c(c1)CCC2 | inconclusive: 8.91 µM [fluorescent, side channel, full curve, poor fit] | 
COc1ccc(OC)c(NC(=O)c2cc(-c3cc(Cl)ccc3O)n[nH]2)c1 | inconclusive: 31.6 µM [quencher, side channel, single point] | 
Cc1ccc(-c2ccc(=O)n(Cc3cc(C)ccc3C)n2)cc1 | inconclusive: 11.2 µM [fluorescent, side channel, partial curve] | 
C(=N\C(/N=C/c1ccco1)c1ccco1)/c1ccco1 |  | inactive: -3.37%
COc1cccc(/C=N/NC(=O)c2ccc(OCc3cccc(Br)c3)cc2)c1 | inconclusive: 5.01 µM [inhibitor, full curve] | 
COc1ccccc1-c1noc(-c2ccccc2C(=O)Nc2ccccc2)n1 | inconclusive: 39.8 µM [quencher, side channel, single point] | 
CC(/C=C1\SC(=S)N(CCC(=O)Nc2ccc(O)cc2)C1=O)=C\c1ccccc1 | inconclusive: 3.55 µM [quencher, side channel, full curve] | 
CCCCS(=O)(=O)N1CCc2nc(-c3ccc(OC)cc3C)c3c(c2C1)CO[C@@H](c1ccccc1)C3 |  | inactive: -3.02% [at 11.7 µM]
COP(=O)(OC)OC(c1ccc(Cl)cc1)P(=O)(OC)OC (stereo unspecified) |  | inactive: 18.4%
CC(CN(C)C)CN1c2ccccc2CCc2ccccc21 (stereo unspecified) | inconclusive: 15.8 µM [fluorescent, side channel, partial curve, poor fit] | 
COc1ccc(C(=O)ON=C2C=C(C)C(=O)C(C)=C2)cc1 | inconclusive: 39.8 µM [inhibitor, single point] | 
COc1cccc(/C=C2/SC(=S)N(CC(=O)NNC(=O)c3ccccc3OC)C2=O)c1 | inconclusive: 22.4 µM [quencher, side channel, single point] | 
CC/C=C\C/C=C\C/C=C\C/C=C\C=C\C(O)CCCC(=O)O (stereo unspecified) |  | inactive: 3.32%
Cc1cc2cc(CNS(=O)(=O)c3ccccc3)ccc2n1C | inconclusive: 25.1 µM [fluorescent, partial curve] | 
COc1ccc(C(=O)N2CCN(Cc3ccc4c(c3)OCO4)CC2)cc1[N+](=O)[O-] | inconclusive: 39.8 µM [inhibitor, single point] | 
COc1ccc2c(c1)c(=O)oc1c(C)c(OCc3ccc(C(=O)O)cc3)ccc12 | inconclusive: 31.6 µM [quencher, side channel, single point] | 
CCNS(=O)(=O)c1ccc(NC(=O)Nc2ccccc2OC)cc1 | inconclusive: 14.1 µM [quencher, side channel, partial curve] | 
Cc1cc(C)cc(N(CC(=O)NC2CCCCC2)C(=O)CCCC(=O)Nc2ccccn2)c1 | inconclusive: 25.1 µM [inhibitor, partial curve, poor fit] | 
